These are yes or no findings as the source states them, for the method shown. Some entries that bind do so weakly or less than the wild type. Tags and fused reporters may be left off the sequences shown.

Here are results for 2 molecules from paper PMC9352552.

Holding throughout (assay): two-hybrid; yeast AH109; tails fused with the Gal4-binding domain, μ subunits with the Gal4-activation domain; growth on medium lacking histidine, leucine and tryptophan
Experiment [1] has as its target APP cytosolic tail I656A (human) (UniProt P05067).
Experiment [2] deals with APP cytosolic tail Y653A (human) (UniProt P05067).
Experiment [3] has as its target APP cytosolic tail Y653A/I656A (human) (UniProt P05067).
The target of experiment [4] is APP cytosolic tail Y682A (human) (UniProt P05067).
The target in experiment [5] is APP cytosolic tail Y687A (human) (UniProt P05067).
Experiment [6] concerns the target Human APP cytosolic tail (isoform 695) fused with the Gal4-binding domain (human) (UniProt P05067).

B1: C-terminal domain of human μ1B (residues 137-423) fused with the Gal4-activation domain (domain or fragment, UniProt Q9Y6Q5 137-423)
chain: QQSNKLETGKSRVPPTVTNAVSWRSEGIKYKKNEVFIDVIESVNLLVNANGSVLLSEIVGTIKLKVFLSGMPELRLGLNDRVLFELTGRSKNKSVELEDVKFHQCVRLSRFDNDRTISFIPPDGDFELMSYRLSTQVKPLIWIESVIEKFSHSRVEIMVKAKGQFKKQSVANGVEISVPVPSDADSPRFKTSVGSAKYVPERNVVIWSIKSFPGGKEYLMRAHFGLPSVEKEEVEGRPPIGVKFEIPYFTVSGIQVRYMKIIEKSGYQALPWVRYITQSGDYQLRTS
As to B1, the binding entry in experiment [1] is “binds”; in experiment [2], “binds”; in experiment [3] it was “binds”; in experiment [4], “no binding”; in experiment [5], “no binding”; in experiment [6], “binds”.

B2: Rat μ3A, full length, fused with the Gal4-activation domain (protein, UniProt P53676 1-418)
chain: MIHSLFLINCSGDIFLEKHWKSVVSQSVCDYFFEAQEKAADVENVPTVISTPHHYLISIYRDKLFFVSVIQTEVPPLFVIEFLHRVADTFQDYFGECSEAAIKDNVVIVYELLEEMLDNGFPLATESNILKELIKPPTILRSVVNSITGSSNVGDTLPTGQLSNIPWRRAGVKYTNNEAYFDVVEEIDAIIDKSGSTVFAEIQGVIDACIKLSGMPDLSLSFMNPRLLDDVSFHPCIRFKRWESERVLSFIPPDGNFRLISYRVSSQNLVAIPVYVKHNISFKENSSCGRFDITIGPKQNMGKTIEGITVTVHMPKVVLNMNLTPTQGSYTFDPVTKVLAWDVGKITPQKLPSLKGLVNLQSGAPKPEENPNLNIQFKIQQLAISGLKVNRLDMYGEKYKPFKGVKYITKAGKFQVRT
For B2, in experiment [6], the binding entry is recorded as “no binding”.
